Experimental data published in paper PMC4242493.
The list shows a part of the results. The list includes weakly bound sequences.

Target: MaxL homodimer (UniProt P61244)
Assay: universal protein-binding microarray (PBM)
Conditions: PBS-based mixture, 10 nM His-tagged protein dimer, 2% milk, 200 ng/uL BSA, 50 ng/uL salmon testes DNA, 0.02% TX-100; detection with Alexa 488 anti-His …; high values mean tight binding; most listed sequences are background and not binding sites; double strand, one strand shown

UniProt P61244, sequence (P61244 whole entry): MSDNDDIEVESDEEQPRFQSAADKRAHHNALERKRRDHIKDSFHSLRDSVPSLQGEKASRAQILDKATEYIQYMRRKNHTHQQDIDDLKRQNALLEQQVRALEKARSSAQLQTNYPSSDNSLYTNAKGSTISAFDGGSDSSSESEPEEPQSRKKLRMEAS

Sequence	binding signal (normalized occupancy)
AGGCGCCT	0.0626
AACCAGGG	0.0675
CGAGTGTC	0.0736
ATACGGGA	0.0757
TAGACCCA	0.0764
CAGGCTCC	0.0681
ACCCTCTG	0.0729
AACTTGAC	0.0743
GCAAAGAA	0.0727
CGGGGATC	0.0731
CGACGATC	0.0747
CACACCGA	0.0782
ACTCGTTA	0.0776
AGCCAACT	0.0681
GAACAACA	0.0723
GCCGGAGA	0.0691
CAGACGAA	0.0711
GCATTTCA	0.0785
CCGCAAAC	0.0727
CCGTAACC	0.0723
AAGCTGCT	0.0725
TGCTATAA	0.0838
TGACCCCA	0.0915
CTACAGAG	0.0735
ATGGGATA	0.0854

Sequence	binding signal (normalized occupancy)
CAGGCATC	0.0725
CTAGTGAG	0.0776
ATCGAGGG	0.0773
GAGATATA	0.0807
AATTTAAC	0.0721
CCATCATA	0.0853
CAAAACCG	0.0676
AAATAGTC	0.0779
AGTGCTAC	0.0738
ATTCCCCC	0.081
GCCCGGTA	0.0697
ACTCGCCA	0.081
AAGATGTA	0.0786
GTAGGATA	0.0757
TGTGCACA	0.0902
CCTTGTAA	0.0766
GCCTTGGA	0.0725
AATGGATA	0.0801
CGAGTTCA	0.0827
GCGACCTA	0.0698
GGTATGCA	0.0844
CACGTCTA	0.0825
GGAAACGA	0.0719
AGTTCGAA	0.0747
CGTGCGCA	0.0967

Sequence	binding signal (normalized occupancy)
AGGTCGAA	0.0689
CTAGGCTA	0.0664
ATAAGGTG	0.0767
AATTTTCG	0.0716
CAGGTCAG	0.0752
TACATTCA	0.085
CAGTTAGC	0.0694
AAGCTAGT	0.0699
AGATCACG	0.0896
GCGCGATA	0.0728
AGACTGCA	0.0719
ACCCCGCA	0.0816
AAGGTATG	0.0817
AGCAGCCC	0.0713
CGGCTGCA	0.0669
CGACTAAC	0.0717
ACGATAAC	0.0811
ATAGATTG	0.0832
AGGCAATC	0.0737
CTCTCTCC	0.0738
ATCGAGTG	0.0762
ATCTGCGC	0.0755
CCCAGGAA	0.0732
AACATTGA	0.0809
ATACCGGC	0.0765

Sequence	binding signal (normalized occupancy)
AAGAGTAT	0.0783
ATTGGTTC	0.0728
ATTTTGGA	0.0799
AGAAGTAC	0.0753
AAATCACG	0.0875
CCCGACAA	0.0736
AAATGCAG	0.0778
AACCATAC	0.0801
CGACCACA	0.0861
CGGGCCCA	0.0639
ATGATTAC	0.083
GGAACGAA	0.0747
AGAAGCCG	0.069
GACTTTAC	0.0727
ACGTCGTC	0.0822
CTCATCGC	0.0766
ATGGGACC	0.0814
AAACTAGT	0.0668
ATTTACAC	0.0834
ACAGATAG	0.0748
GAAATCGA	0.0664
AGGATTTA	0.076
AATACAGG	0.0759
CGATTATA	0.073
AGCTGCTC	0.0719

Sequence	binding signal (normalized occupancy)
AGTGGTTC	0.0721
AACCACGG	0.0843
GTACGGAA	0.0756
ACGCCAAG	0.076
CCAAAACC	0.0689
TCATAAGA	0.0813
CACACCTA	0.081
ACACTACA	0.0746
AATAGATT	0.0811
ACGATGGC	0.0795
ACTTAACG	0.0738
CGATAAAC	0.0787
AAACTTCG	0.0694
GCAACCAA	0.0749
GGTACTCA	0.069
CCTCGGCA	0.0675
CACAAATG	0.0765
CCAGCTGA	0.0721
GCCCCCGA	0.0746
AGAAGTCA	0.0698
GGCCCCGA	0.0707
GACGAGAA	0.0723
ATGGTCTA	0.0796
CTTTATAA	0.0823
GAGAGGAA	0.0739

Sequence	binding signal (normalized occupancy)
CAGGATGA	0.0758
TATGAATA	0.0823
CAACATTG	0.0794
ACTGTTAC	0.0782
GCCGGAGC	0.0689
AAGGAAGC	0.0755
GGACGTAA	0.0748
GTGCGGGA	0.0785
CCGGTGCG	0.0746
ATAGCGAC	0.0789
GGTTTCGA	0.074
AAGGTGAA	0.0694
AGTAGGGG	0.0805
CTTCCCAA	0.0759
AGACTAAT	0.0731
GGATTAGA	0.0774
AAGATCGC	0.0764
GTCACTGA	0.0746
CCATACGG	0.0859
GAATCGTC	0.0756
ATTGGACG	0.0732
AGGCGCGA	0.0694
TCACCCAA	0.0792
CAGGTTCC	0.0728
GCGAGAAC	0.0695

Sequence	binding signal (normalized occupancy)
CCGAGCTA	0.0681
CGAAGTCC	0.0699
AAGGATGG	0.0801
ACAGGTCC	0.0734
GAGGATCC	0.0727
CAACATTA	0.0824
ATGCGATG	0.0811
CGGCAGTA	0.0735
CAACTCAG	0.0733
ATTGACCC	0.0793
CCTCGTAA	0.0845
AGCCGCAC	0.0791
TATTATAA	0.0865
ATTGCATG	0.0902
ACTAGAGA	0.0746
GCGCTTTA	0.0687
GGAGCGGA	0.0697
TGGTTTAA	0.0816
AATGGAAG	0.074
CTGAATCA	0.0733
GAGTGGTA	0.0787
ACTAGAGG	0.0703
ACGAACTA	0.075
ACGCCCGT	0.0759
AACACAGA	0.0748

Sequence	binding signal (normalized occupancy)
CAATACTC	0.0819
GGTACTAC	0.0761
CTCGGGGC	0.0751
CCTCAGCC	0.0754
GCCCAACC	0.0755
GAAACTCC	0.0662
GGGTATGA	0.0848
AGATAGCC	0.0724
CTACCTAC	0.0725
ATCTTCCA	0.0773
GAACGTAA	0.0714
ACTAACAG	0.0759
ACTGGAAC	0.0731
CCACAGAA	0.0794
CATGCCTC	0.0935
ATTTCGTA	0.076
CGAGGAGC	0.0711
AAATACTT	0.0716
CGCGCCTA	0.0755
ACGATCGG	0.0744
CGTTCTAA	0.0715
AGACATGG	0.0832
CATAGCCC	0.08
CACGCCAG	0.0816
ATCCCATC	0.0796

Sequence	binding signal (normalized occupancy)
GTACGCAA	0.0786
ATCGATCC	0.0786
GAGAGCAA	0.0684
CCTTATGC	0.0797
TAACACGA	0.0776
GCAAATTA	0.0724
GATCACAA	0.0773
CATTTCTA	0.0751
CATAGAAA	0.0789
TCTTGGCA	0.0751
AGTCCACC	0.0809
AACCGGTA	0.0727
ATGAATGC	0.0821
ACACCCGT	0.0789
CGGTTCTC	0.0689
AATGAGGT	0.0823
TAGCCCAA	0.0683
AGATTGAT	0.0745
CTGGGAGA	0.071
AGAGTTCC	0.0699
ACTCTTAA	0.0735
AGTTAAGC	0.076
AGTCGCCG	0.0648
CCGCATAG	0.0734
AGTATTAA	0.0823

Sequence	binding signal (normalized occupancy)
CTGTCATC	0.0805
AACTCCGG	0.0677
ACCGGTTA	0.0751
TAGTTAAA	0.0739
CTCCCTTA	0.076
CGCTCGGA	0.0711
CATAGAAC	0.0803
AACTGCAG	0.0704
ACCCCTTG	0.0761
GGGTTTTA	0.0768
CTGCAAAG	0.0662
ATACGAGA	0.0785
GGCCAACC	0.0741
CGCCGCTC	0.0669
ACAAAAAA	0.0723
TCACCAAA	0.0792
GCAGTACA	0.0754
TCTCTAAA	0.0709
CCTGTGTC	0.0725
AACATAAT	0.0823
AAGGTTGA	0.0728
AGTCCGAA	0.0706
AATAAGAT	0.0727
GTGTTTGA	0.0829
ATTCCATC	0.0772

Sequence	binding signal (normalized occupancy)
ACATTAGA	0.0826
CCAAGTGG	0.0717
GTGGAAAC	0.079
ATCACTCG	0.08
CTGGCTCC	0.0673
CGAGGCAC	0.0822
ACACGTTA	0.118
CAATCGGC	0.0694
AATTCCAT	0.0775
CAACAATG	0.0787
AAATAGTA	0.076
ATGAAATG	0.081
AGCTAAGC	0.0662
CGATCTAG	0.0719
AATGGACT	0.073
CTGACCAC	0.0772
AGTTACTC	0.0718
ATTCGAAG	0.074
CTGGTGCA	0.0776
TGATACAA	0.0772
GGGGGGAA	0.0895
GTATCATA	0.0848
CATCGGGG	0.0782
CACTCCAG	0.0748
CACAAGGA	0.0818

Sequence	binding signal (normalized occupancy)
AGGGGATC	0.0787
AGGGCACA	0.0772
CATTGCCG	0.0713
ACACATAT	0.0874
GCCCTACC	0.07
CCTCAGCA	0.0731
GTAGTTAA	0.0781
CAGCGCAG	0.0701
CCCGAAGC	0.0698
AGGAGATA	0.08
GGGGAGAA	0.0797
GATGGTGA	0.0878
ACGCCCAT	0.0792
CAGTGGTA	0.0768
AGCTCTCA	0.0708
CCTAGACA	0.0763
AACCATGT	0.0862
GACACTAC	0.0741
ACGGGTAG	0.0748
AGCCTTGC	0.0678
CTCAGAAG	0.0683
AGGGATAG	0.078
CCGATTCC	0.0698
ATTGTTGA	0.0777
AGCTCGTC	0.0632

Sequence	binding signal (normalized occupancy)
CCCCCGGA	0.0713
AACACACA	0.0847
AAGTCAGT	0.0707
CGAACTAA	0.0684
AACGTGTA	0.11
CCCTAGCA	0.079
CTTCGGAA	0.0648
ACCAACAG	0.0726
GATTATGC	0.0788
CGCCCCCA	0.0794
AATCGGTG	0.071
CCCATGAA	0.0827
TACTCCCA	0.0786
GGCTTCAA	0.0709
ATCATGTG	0.137
GTCATCCA	0.0814
CTCAGGCC	0.0749
AGGCCGGG	0.0664
ATTCATAG	0.075
AAGACAGG	0.0727
AAATGCCT	0.0805
GTAGTCTA	0.0723
ATTACACG	0.0847
GCGCCCGC	0.0684
CACACGAG	0.0978

Sequence	binding signal (normalized occupancy)
ACTAGGCA	0.0757
CGTTTACA	0.0739
AATATTCA	0.079
GCCTTCAA	0.0735
GATGTTCA	0.0756
CCATCAGA	0.077
AGGTGTCA	0.0794
GTCTATGA	0.0735
AATCGTTA	0.0761
ATTGTGCC	0.0808
AATTAGCT	0.0717
AGGTACGG	0.0689
ACAGCCGT	0.0716
AAATATTT	0.0809
ACTCCGTA	0.0697
ATTGCGTC	0.0761
CCCACGCC	0.099
AGGGAAAA	0.0755
GAAGCATA	0.075
